# Results reported in the supplement of paper PMC8728848.
# This is one part of the list.
# Key:
# Experiment in all cases: glycan array binding signal (z-score within array); higher = stronger binding
# Conditions in all cases: glycan notation: IUPAC condensed, linker removed
# [1] = molecular target: Fuc(a1-2)[GalNAc(a1-3)]Gal(b1-3)GlcNAc(b1-6)GalNAc
# How it was run: (§1)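 Arrays were curated from the Consortium for Functional Glycomics database, 3228 in total, and kept only where the protein sequence was available. Binding is expressed as a within-array Z-score. This score was averaged across arrays of the same protein sequence at different concentrations or buffers and across linkers, and negative values can be read as non-binding.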
# [2] = molecular target: Fuc(a1-2)[GalNAc(a1-3)]Gal(b1-4)Glc
# How it was run: as §1
# [3] = molecular target: Fuc(a1-2)[GalNAc(a1-3)]Gal(b1-4)GlcNAc
# How it was run: as §1
# [4] = molecular target: Fuc(a1-2)[GalNAc(a1-3)]Gal(b1-4)GlcNAc(b1-2)Man
# How it was run: as §1
# [5] = molecular target: Fuc(a1-2)[GalNAc(a1-3)]Gal(b1-4)GlcNAc(b1-2)Man(a1-3)[Fuc(a1-2)[GalNAc(a1-3)]Gal(b1-4)GlcNAc(b1-2)Man(a1-6)]Man(b1-4)GlcNAc(b1-4)GlcNAc
# How it was run: as §1
# [6] = molecular target: Fuc(a1-2)[GalNAc(a1-3)]Gal(b1-4)GlcNAc(b1-2)Man(a1-3)[Fuc(a1-2)[GalNAc(a1-3)]Gal(b1-4)GlcNAc(b1-2)Man(a1-6)]Man(b1-4)GlcNAc(b1-4)[Fuc(a1-6)]GlcNAc
# How it was run: as §1
# [7] = molecular target: Fuc(a1-2)[GalNAc(a1-3)]Gal(b1-4)GlcNAc(b1-3)Gal(b1-4)GlcNAc
# How it was run: as §1
# [8] = molecular target: Fuc(a1-2)[GalNAc(a1-3)]Gal(b1-4)GlcNAc(b1-3)Gal(b1-4)GlcNAc(b1-3)Gal(b1-4)GlcNAc
# How it was run: as §1
# [9] = molecular target: Fuc(a1-2)[GalNAc(a1-3)]Gal(b1-4)GlcNAc(b1-3)GalNAc
# How it was run: as §1
# [10] = molecular target: Fuc(a1-2)[GalNAc(a1-3)]Gal(b1-4)GlcNAc(b1-3)[Fuc(a1-2)[GalNAc(a1-3)]Gal(b1-4)GlcNAc(b1-6)]GalNAc
# How it was run: as §1
# [11] = molecular target: Fuc(a1-2)[GalNAc(a1-3)]Gal(b1-4)GlcNAc(b1-6)GalNAc
# How it was run: as §1
# [12] = molecular target: Fuc(a1-2)[GalNAc(a1-3)]Gal(b1-4)[Fuc(a1-3)]GlcNAc
# How it was run: as §1
# [13] = molecular target: Fuc(a1-2)[GalNAc(a1-3)]Gal(b1-4)[Fuc(a1-3)]GlcNAc(b1-3)GalNAc
# How it was run: as §1
# [14] = molecular target: Fuc(a1-2)[GalNAc(a1-4)]Gal(b1-4)GlcNAc
# How it was run: as §1
# [15] = molecular target: Fuc(a1-2)[GalNAc(b1-3)]Gal
# How it was run: as §1
# [16] = molecular target: Fuc(a1-3)GlcNAc
# How it was run: as §1
# [17] = molecular target: Fuc(a1-3)[Gal(b1-4)]Glc6S
# How it was run: as §1
# [18] = molecular target: Fuc(a1-3)[Gal(b1-4)]GlcNAc
# How it was run: as §1
# [19] = molecular target: Fuc(a1-3)[Gal(b1-4)]GlcNAc(b1-2)Man
# How it was run: as §1
# [20] = molecular target: Fuc(a1-3)[Gal(b1-4)]GlcNAc(b1-2)Man(a1-3)[Fuc(a1-3)[Gal(b1-4)]GlcNAc(b1-2)Man(a1-6)]Man(b1-4)GlcNAc(b1-4)GlcNAc
# How it was run: as §1
# [21] = molecular target: Fuc(a1-3)[Gal(b1-4)]GlcNAc(b1-2)Man(a1-3)[Fuc(a1-3)[Gal(b1-4)]GlcNAc(b1-2)Man(a1-6)]Man(b1-4)GlcNAc(b1-4)[Fuc(a1-6)]GlcNAc
# How it was run: as §1
# [22] = molecular target: Fuc(a1-3)[Gal(b1-4)]GlcNAc(b1-3)Gal(b1-3)[Fuc(a1-4)]GlcNAc
# How it was run: as §1
# [23] = molecular target: Fuc(a1-3)[Gal(b1-4)]GlcNAc(b1-3)Gal(b1-4)[Fuc(a1-3)]GlcNAc
# How it was run: as §1
# [24] = molecular target: Fuc(a1-3)[Gal(b1-4)]GlcNAc(b1-3)Gal(b1-4)[Fuc(a1-3)]GlcNAc(b1-3)Gal(b1-4)[Fuc(a1-3)]GlcNAc
# How it was run: as §1
# [25] = molecular target: Fuc(a1-3)[Gal(b1-4)]GlcNAc(b1-3)GalNAc
# How it was run: as §1
# [26] = molecular target: Fuc(a1-3)[Gal(b1-4)]GlcNAc(b1-6)GalNAc
# How it was run: as §1
# [27] = molecular target: Fuc(a1-3)[Gal(b1-4)]GlcNAc(b1-6)[Gal(b1-3)GlcNAc(b1-3)]Gal(b1-4)Glc
# How it was run: as §1
# [28] = molecular target: Fuc(a1-3)[Gal(b1-4)]GlcNAc6S
# How it was run: as §1
# [29] = molecular target: Fuc(a1-3)[Gal3S(b1-4)]Glc
# How it was run: as §1
# [30] = molecular target: Fuc(a1-3)[Gal3S(b1-4)]GlcNAc
# How it was run: as §1
# [31] = molecular target: Fuc(a1-3)[Gal3S(b1-4)]GlcNAc6S
# How it was run: as §1
# [32] = molecular target: Fuc(a1-3)[GalNAc(b1-4)]GlcNAc
# How it was run: as §1
# [33] = molecular target: Fuc(a1-3)[GalNAc(b1-4)]GlcNAc6S
# How it was run: as §1
# [34] = molecular target: Fuc(a1-4)GlcNAc
# How it was run: as §1
# [35] = molecular target: Fuc(b1-3)GlcNAc
# How it was run: as §1
# [36] = molecular target: Gal(a1-2)Gal
# How it was run: as §1
# [37] = molecular target: Gal(a1-3)Gal
# How it was run: as §1
# [38] = molecular target: Gal(a1-3)Gal(b1-3)GlcNAc
# How it was run: as §1
# [39] = molecular target: Gal(a1-3)Gal(b1-3)GlcNAc(b1-2)Man
# How it was run: as §1
# [40] = molecular target: Gal(a1-3)Gal(b1-3)GlcNAc(b1-2)Man(a1-3)[Gal(a1-3)Gal(b1-3)GlcNAc(b1-2)Man(a1-6)]Man(b1-4)GlcNAc(b1-4)GlcNAc
# How it was run: as §1
# [41] = molecular target: Gal(a1-3)Gal(b1-3)GlcNAc(b1-3)GalNAc
# How it was run: as §1
# [42] = molecular target: Gal(a1-3)Gal(b1-3)GlcNAc(b1-6)GalNAc
# How it was run: as §1
# [43] = molecular target: Gal(a1-3)Gal(b1-3)[Fuc(a1-4)]GlcNAc(b1-2)Man(a1-3)[Gal(a1-3)Gal(b1-3)[Fuc(a1-4)]GlcNAc(b1-2)Man(a1-6)]Man(b1-4)GlcNAc(b1-4)GlcNAc
# How it was run: as §1
# [44] = molecular target: Gal(a1-3)Gal(b1-4)Glc
# How it was run: as §1
# [45] = molecular target: Gal(a1-3)Gal(b1-4)GlcNAc
# How it was run: as §1
binder,measurement,setting,value
Pwp4 (Candida glabrata) (protein) MGSSHHHHHHSSGLVPRGSHMASVGNPITVSNVCSFPKNWHRTAGFRALTARLGIGIQSDSYKELLNYPGTFQLTTQQSSTTKPNFQISGLVGNIYGLTIVPSYLLVELTGYFVPPVSGEYTFSLEGSDDAAIIFIANPSTFKCGHVEDWPTAYDNDVTVTESIHATRTIYMIEGVAYPIRIAYYNGLSLGKLQASFTDPEGVKRVDWNGYIWRYDSCDTCSYV,glycan array binding signal (z-score),[1],-0.551
same,glycan array binding signal (z-score),[2],-0.552
same,glycan array binding signal (z-score),[3],-0.515
same,glycan array binding signal (z-score),[4],0.39
same,glycan array binding signal (z-score),[5],1.15
same,glycan array binding signal (z-score),[6],-0.261
same,glycan array binding signal (z-score),[7],0.146
same,glycan array binding signal (z-score),[8],-0.176
same,glycan array binding signal (z-score),[9],0.222
same,glycan array binding signal (z-score),[10],-0.536
same,glycan array binding signal (z-score),[11],-0.39
same,glycan array binding signal (z-score),[12],-0.455
same,glycan array binding signal (z-score),[13],-0.243
same,glycan array binding signal (z-score),[14],-0.271
same,glycan array binding signal (z-score),[15],-0.91
same,glycan array binding signal (z-score),[16],-0.522
same,glycan array binding signal (z-score),[17],0.417
same,glycan array binding signal (z-score),[18],0.547
same,glycan array binding signal (z-score),[19],-0.175
same,glycan array binding signal (z-score),[20],-0.556
same,glycan array binding signal (z-score),[21],-0.406
same,glycan array binding signal (z-score),[22],-0.319
same,glycan array binding signal (z-score),[23],-0.412
same,glycan array binding signal (z-score),[24],-0.361
same,glycan array binding signal (z-score),[25],1.8
same,glycan array binding signal (z-score),[26],-0.165
same,glycan array binding signal (z-score),[27],-0.536
same,glycan array binding signal (z-score),[28],-0.345
same,glycan array binding signal (z-score),[29],-0.392
same,glycan array binding signal (z-score),[30],-0.237
same,glycan array binding signal (z-score),[31],0.112
same,glycan array binding signal (z-score),[32],-0.325
same,glycan array binding signal (z-score),[33],-0.246
same,glycan array binding signal (z-score),[34],-0.389
same,glycan array binding signal (z-score),[35],-0.699
same,glycan array binding signal (z-score),[36],-0.437
same,glycan array binding signal (z-score),[37],0.658
same,glycan array binding signal (z-score),[38],0.293
same,glycan array binding signal (z-score),[39],-0.186
same,glycan array binding signal (z-score),[40],-0.051
same,glycan array binding signal (z-score),[41],-0.55
same,glycan array binding signal (z-score),[42],-0.55
same,glycan array binding signal (z-score),[43],0.361
same,glycan array binding signal (z-score),[44],0.019
same,glycan array binding signal (z-score),[45],-0.639
